Laboratory results taken from PubChem BioAssay AID686978 (National Center for Advancing Translational Sciences (NCATS), 2013).
Values joined by “and” are separate entries in the source; they are usually repeats but may differ in a detail not shown here. Identical values can stand only once. About 64,000 (15%) of roughly 420,000 compounds were called active. The shares of active, inactive and inconclusive entries below differ from those in the screen. Calls come from the whole dose curve; as a rule, active = well fitted inhibition curve with a large enough effect; inconclusive = small, poorly fitted or top-dose-only effect; inactive = flat fitted curve, though single readings scatter. Potencies of inconclusive entries are doubtful fits and often do not repeat.

Assay: qHTS for Inhibitors of human tyrosyl-DNA phosphodiesterase 1 (TDP1): qHTS in cells in absence of CPT; note: nearly all actives have a fitted effect of over 55% in size
Conditions: DT40 Tdp1-/- hTDP1 cells, no CPT, ATP luminescence, 48 h; activity change, negative = growth inhibition: at 46.2 µM (top of the series)
Outline: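 Growth of hTDP1-complemented DT40 Tdp1-knockout cells is measured by ATP luminescence after at least 48 hr compound exposure at 37 °C, with DMSO substituting for the 20 nM CPT used in the parallel screen.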
% is set by controls: 0 for no effect and ±100 for the full control effect; potency is the fitted concentration of half-maximal effect; tags give direction and shape of the fitted curve.

SMILES	activity change, negative = growth inhibition	Potency
Cc1ccc(OCCC(=O)OCC(=O)NCc2ccccc2)cc1	inactive: -6.28%	
NN1C(=O)/C(=C\c2ccco2)SC1=S	inactive: -9.9%	
CCCCNC(=O)CCCn1c(=O)c2ccccc2n(Cc2ccccc2C)c1=O		active: 20.6 µM
COCCN1Cc2cccc(C(=O)Nc3cc(OC)ccc3OC)c2C1=O	inconclusive: -30.5% [inhibitor]	
CN(c1ccc(O)cc1)c1nc(O)c(C2=c3ccccc3=NC2=O)s1		inconclusive: 11.6 µM [inhibitor, partial curve]
O=C1NC[C@H](CCCCN2C[C@H](Cc3ccccc3)N(Cc3ccccc3)C(=O)C2=O)N(CCc2ccccc2)C1=O		inconclusive: 25.9 µM [inhibitor, single point]
S=c1nc(SCc2ccccc2)[nH]c2ccccc12		inconclusive: 20.6 µM [inhibitor, single point]
COc1ccc(CNC(=O)COCc2cc(-c3cccs3)on2)cc1OC		active: 23.1 µM
Clc1cccc(-c2ccc(C=Nc3ccc(N4CCOCC4)cc3)o2)c1		inconclusive: 29.1 µM [inhibitor, single point]
CC(C)C[C@H](NC(=O)CCn1nnc2ccccc2c1=O)C(=O)O		inconclusive: 29.1 µM [inhibitor, single point]
CCc1c(C)sc(NC(=O)C2CCCO2)c1C#N (stereo not given)		inconclusive: 20.6 µM [inhibitor, single point]
Cc1ccc(NC(=O)C2(c3ccc([N+](=O)[O-])cc3)CCCC2)cc1		inconclusive: 29.1 µM [inhibitor, single point]
Cc1cnc(CNC(=O)C2(C)CCCN2CC(C)C)cn1 (stereo not given)	inactive: -8.27%	
O=C(NNC(=S)NC1CCCCC1)c1sc2ccccc2c1Cl	inconclusive: -37.3% [inhibitor]	
COCCN(CC(=O)Nc1cccc(C)c1C)C(=O)c1ccc2ccccc2n1		inconclusive: 25.9 µM [inhibitor, partial curve, poor fit]
O=C(COc1ccc(S(=O)(=O)NC2CCCCC2)cc1Cl)NCC1CCCO1 (stereo not given)		inconclusive: 7.31 µM [inhibitor, single point]
Cc1cccc(C)c1NC(=O)C(c1ccc(-c2ccccc2)cc1)n1c(=O)c(-c2cc3ccccc3[nH]2)nc2ccccc21 (stereo not given)		inconclusive: 29.1 µM [inhibitor, single point]
CN1c2ccccc2-c2ccccc2S1(=O)=O		inconclusive: 6.31 µM [inhibitor, full curve, poor fit] and inconclusive: 29.1 µM [inhibitor, single point]
COC(=O)CC1C(=O)NCCN1C(=O)CSc1nc2ccccc2c(=O)n1CC(C)C (stereo not given)		inconclusive: 23.1 µM [inhibitor, single point]
Cc1nc(C(C)NC(=O)c2cc(COc3ccc(C)c(C)c3)on2)c(C)s1 (stereo not given)		inconclusive: 13 µM [inhibitor, partial curve]
CC1CC(=O)C2=C(C1)Nc1nc3ccccc3n1C2c1cccnc1 (stereo not given)	inactive: -29.8%	
CCCSc1nc2c(c(=O)[nH]c(=O)n2C)n1Cc1ccccc1		inconclusive: 25.9 µM [inhibitor, partial curve]
CC(=O)N1CCN(S(=O)(=O)c2ccc3c(c2)CCC(=O)N3)CC1	inactive: 18.1%	

SMILES	activity change, negative = growth inhibition	Potency
O=C(NCCCN1CCCCCC1)c1ccc(N2CCCC2=O)cc1	inactive: -2.76%	
COc1ccc(C2=Nc3ccccc3N(C(=O)c3cc(Cl)cc(Cl)c3)C2C(=O)NCc2ccccc2)cc1 (stereo not given)		inconclusive: 16.4 µM [inhibitor, single point]
CC(Oc1cccc(Cl)c1)C(=O)Nc1cc(S(=O)(=O)N2CCOCC2)ccc1N1CCCC1 (stereo not given)		inconclusive: 10.3 µM [inhibitor, partial curve]
Cc1c(C(=O)Nc2cccc([N+](=O)[O-])c2)csc1-c1ccccc1		inconclusive: 11.6 µM [inhibitor, partial curve]
O=P(OC1CCCCC1)(OC1CCCCC1)C(O)c1cccnc1 (stereo not given)	inactive: -13%	
N#C/C(=N\Nc1ccccc1[N+](=O)[O-])C(=N)N1CCCCC1		active: 5.8 µM
CC(=O)Nc1cccc(C(=O)NCc2ccc3c(c2)CCN3C(C)=O)c1	inactive: -13.2%	
COC(=O)c1cc(NC(=O)c2nn(C)c(=O)c3ccccc23)cc(C(=O)OC)c1		active: 6.51 µM
OCCNCc1ccc(OCc2ccc(Cl)cc2Cl)cc1		active: 18.4 µM
COC(=O)C1=C(C)NC(=S)N(C(C)=O)C1c1ccc(OC)c(OC)c1 (stereo not given)	inactive: -1.83%	
CCOC(=O)N1CCN(CCC(=O)Nc2cccc(Br)c2)CC1		inconclusive: 29.1 µM [inhibitor, single point]
O=C(Nc1ccccc1)Nc1sccc1-c1nc2ccccc2s1	inactive: -6.38%	
CC(=O)c1[nH]c(C)c(C(=O)NCCc2ccc(C)cc2)c1C		inconclusive: 18.4 µM [inhibitor, single point]
CN(C)C(=O)CNC(=O)Cc1ccccc1	inactive: 2%	
Cc1ccc(NC(=O)c2ccc3c(c2)OCO3)cc1S(=O)(=O)N1CCOCC1		inconclusive: 29.1 µM [inhibitor, single point]
Cc1ccc(C2=Nc3ccccc3N(CC(=O)Nc3cccc(F)c3)C(=O)C2)cc1C		active: 18.4 µM
CCCSc1nc2c(cnn2-c2ccccc2)c(=O)n1N		inconclusive: 18.4 µM [inhibitor, single point]
Cc1nc(NCc2ccc(S(N)(=O)=O)cc2)c2c(C)c(C)sc2n1		inconclusive: 2.59 µM [inhibitor, partial curve]
COc1ccc(-c2noc(-c3ccc(NCc4ccccc4OC)c([N+](=O)[O-])c3)n2)cc1	inconclusive: -15.2% [inhibitor]	
Cc1[nH]n(-c2ccccc2)c(=O)c1/C=N/NC(=O)C(C)C		inconclusive: 23.1 µM [inhibitor, single point]
O=C(CCc1nc(-c2ccccc2F)no1)NCCN1CCc2ccccc2C1		inconclusive: 29.1 µM [inhibitor, single point]
O=c1oc2c3c(ccc2c2ccccc12)OCN(Cc1cccc(Cl)c1)C3		inconclusive: 20.6 µM [inhibitor, single point]
